Measured values reported in patent US20250214977A1, “STAT6 INHIBITORS AND USES THEREOF” (Kymera Therapeutics, Inc., priority 2024, published 2025).

Molecular target: T1, biotinylated truncated STAT6 (123-632)-avi (Homo sapiens, UniProt P42226)
T1 sequence (P42226 123-632 limits assumed): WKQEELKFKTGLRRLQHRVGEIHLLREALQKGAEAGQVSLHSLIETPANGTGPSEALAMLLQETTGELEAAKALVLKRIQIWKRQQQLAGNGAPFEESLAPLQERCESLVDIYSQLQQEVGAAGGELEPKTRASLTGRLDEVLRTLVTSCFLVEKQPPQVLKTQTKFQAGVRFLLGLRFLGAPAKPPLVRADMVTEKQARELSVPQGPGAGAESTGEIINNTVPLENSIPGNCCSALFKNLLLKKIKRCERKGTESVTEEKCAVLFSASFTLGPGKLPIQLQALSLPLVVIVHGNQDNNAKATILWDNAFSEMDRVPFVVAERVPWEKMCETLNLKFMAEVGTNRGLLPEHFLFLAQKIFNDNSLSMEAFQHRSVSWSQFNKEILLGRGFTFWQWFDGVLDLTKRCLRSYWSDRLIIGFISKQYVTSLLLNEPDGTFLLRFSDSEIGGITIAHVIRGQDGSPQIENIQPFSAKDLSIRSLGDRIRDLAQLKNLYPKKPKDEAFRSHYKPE
Assay: Homogenous Time-Resolved Fluorescence (HTRF) binding assay
Details: 0.15 nM biotinylated truncated STAT6 (123-632)-avi, 20 nM fluorescein-labeled probe

| SMILES | IC50 (30 minutes room temperature) [µM] | IC50 (30 minutes at room temperature) [µM] |
| --- | --- | --- |
| COc1ccccc1-c1cc(C2=CCCN(C(=O)CCn3ccnn3)C2)c(F)c2[nH]c(C(=O)N3CCN(c4cccc5c4-c4ccccc4C5(C)C)CC3)cc12 [Example I-1454] | 1 to 10 |  |
| COc1cccc(F)c1-c1cc(C2=CCCN(C(C)=O)C2)c(F)c2cc(C(=O)N(C)C)oc12 [Example I-1105] |  | 0.1 to 1 |
| CN(C)C(=O)c1cc2cc(C3=CCCN(C(=O)Cc4ccncn4)C3)ccc2o1 [Example I-270] |  | 10 to 100 |
| COc1ccncc1-c1cc(C2=CCCN(C(=O)CCn3ccnn3)C2)c(F)c2[nH]c(C(=O)N3CCN(c4nc(Cl)ccc4OC)CC3)cc12 [Example I-491] |  | > 100 |
| O=C(CCn1ccnn1)N1CCC=C(c2ccc3oc(C(=O)N4CC5CCC4CC5)cc3c2)C1 [Example I-1606] | 1 to 10 |  |
| CN(C)C(=O)c1cc2ccc(C3=CCCN(C(=O)C4CC4F)C3)cc2[nH]1 (centres unmarked) [Example I-322] |  | 10 to 100 |
| CCc1ncccc1-c1cc(C(=O)N2CCN(c3ncc(F)cc3OC)CC2)cc2cc(C3=CCCN(C(=O)C(=O)O)C3)n(CC3CC3)c12 [Example I-797] |  | > 100 |
| COc1ccncc1-c1cc(C2=CCCN(C(=O)CCn3ccnn3)C2)c(F)c2[nH]c(C(=O)N3CCN(C4CCCCC4)CC3)cc12 [Example I-1149] |  | < 0.1 |
| CCOc1ccncc1-c1cc(C2=CCCN(C(=O)CCn3cccn3)C2)c(F)c2[nH]c(C(=O)N3CCN(c4cncnc4OC)CC3)cc12 [Example I-486] |  | < 0.1 |
| COc1c(F)cccc1-c1cc(C2=CCCN(C(C)=O)C2)c(F)c2[nH]c(C(=O)N(C)C)cc12 [Example I-881] |  | 0.1 to 1 |
| CN(C)C(=O)c1cc2ccc(C3=CCCN(C(=O)c4ccc5c(c4)OCC(=O)N5)C3)cc2[nH]1 [Example I-132] |  | 10 to 100 |
| CNc1ccc(-c2cc(C3=CCCN(C(=O)CCn4ccnn4)C3)cc3[nH]c(C(=O)N(C)C)cc23)c(OC)c1 [Example I-117] |  | < 0.1 |
| COc1ccccc1-c1cc(C2=CCCN(C(=O)CCn3ccnn3)C2)c(F)c2[nH]c(C(=O)N3CC(NC(C)=O)C3)cc12 [Example I-1535] | 0.1 to 1 |  |
| COc1ccccc1-c1cc(C(=O)N(C)C)cc2cc(C3CCCN(C(C)=O)C3)[nH]c12 (centres unmarked) [Example I-1268] | 10 to 100 |  |
| O=C(NCc1ccccc1CN1CCOCC1)c1cc2cc(C3=CCCN(C(=O)CCn4ccnn4)C3)ccc2o1 [Example I-1603] | 0.1 to 1 |  |
| COc1cccnc1N1CCN(C(=O)c2cc3c(-c4cccc5c4OC(F)(F)O5)cc(C4=CCCN(C(=O)CCn5ccnn5)C4)c(F)c3[nH]2)CC1 [Example I-690] |  | < 0.1 |
| CC(=O)NC(Cc1cccc(F)c1)C(=O)N1CCC=C(c2ccc3cc(C(=O)N(C)C)[nH]c3c2)C1 (centres unmarked) [Example I-82] |  | 10 to 100 |
| Cc1nnsc1C(=O)N1CCC=C(c2cc3cc(C(=O)N(C)C)ccc3[nH]2)C1 [Example I-1259] | 10 to 100 |  |
| CN(C)C(=O)c1cc2ccc(C3=CCCN(C(=O)CCc4ccn(C)n4)C3)cc2[nH]1 [Example I-10] |  | > 100 |
| COc1cccnc1N1CCN(C(=O)c2cc3c(-c4cnc5ccccc5c4OC)cc(C4=CCCN(C(=O)CCn5ccnn5)C4)c(F)c3[nH]2)CC1 [Example I-402] |  | < 0.1 |

| SMILES | IC50 (30 minutes room temperature) [µM] | IC50 (30 minutes at room temperature) [µM] |
| --- | --- | --- |
| CC(=O)Nc1ccc(CC(=O)N2CCC=C(c3ccc4oc(C(=O)N(C)C)cc4c3)C2)cc1 [Example I-287] |  | 1 to 10 |
| CNc1ccc(-c2cc(C3=CCCN(C(=O)CCn4ccnn4)C3)c(F)c3[nH]c(C(=O)N4CCN(C)CC4)cc23)c(OC)c1 [Example I-990] |  | < 0.1 |
| COc1ccccc1-c1cc(C2=CCCN(C(=O)CCn3ccnn3)C2)c(F)c2[nH]c(C(=O)N3CCN(c4ccc5cn[nH]c5c4)CC3)cc12 [Example I-963] |  | < 0.1 |
| CCc1ccccc1-c1cc(C2=CCCN(C(C)=O)C2)c(F)c2[nH]c(C(=O)N(C)C)cc12 [Example I-1582] | 0.1 to 1 |  |
| COc1cc(F)ccc1-c1cc(C2=CCCN(C(=O)CCn3ccnn3)C2)c(F)c2[nH]c(C(=O)N3CCN(C4CC4)CC3)cc12 [Example I-588] |  | < 0.1 |
| CNc1ccc(-c2cc(C3=CCCN(C(=O)CCn4ccnn4)C3)cc3[nH]c(C(=O)N(C)C)cc23)nc1 [Example I-116] |  | < 0.1 |
| COc1ccccc1-c1cc(C2=CCCN(C(=O)CCn3ccnn3)C2)c(F)c2[nH]c(C(=O)N3CCN(c4ncc(Cl)cc4OC)CC3)cc12 [Example I-369] |  | < 0.1 |
| CCC1CCCC=C1c1cc(C2=CCCN(C(=O)CCn3ccnn3)C2)c(F)c2[nH]c(C(=O)N3CCN(c4ncccc4OC)CC3)cc12 (centres unmarked) [Example I-1168] |  | 0.1 to 1 |
| COc1cc(F)cnc1N1CCN(C(=O)c2cc3c(-c4cccc(OC(C)C)c4)cc(C4=CCCN(C(=O)CCn5ccnn5)C4)c(F)c3[nH]2)CC1 [Example I-638] |  | < 0.1 |
| CCOc1cccnc1N1CCN(C(=O)c2cc3c(-c4cnccc4OC)cc(C4=CCCN(C(=O)CCn5ccnn5)C4)c(F)c3[nH]2)CC1 [Example I-564] |  | < 0.1 |
| CN(C)C(=O)c1cc2cc(C3=CCCN(C(=O)CCn4ccnn4)C3)cc(N3CCC(Oc4ncccn4)CC3)c2o1 [Example I-1510] | < 0.1 |  |
| COc1cccc(-c2cc(C3=CCCN(C(C)=O)C3)c(F)c3[nH]c(C(=O)N(C)C)cc23)c1 [Example I-1589] | 0.1 to 1 |  |
| COc1cnccc1-c1cc(C2=CCCN(C(=O)CCn3ccnn3)C2)c(F)c2[nH]c(C(=O)N3CCN(c4ncccc4OC4CC4)CC3)cc12 [Example I-593] |  | < 0.1 |
| COCOc1ccc(-c2cc(C3=CCCN(C(=O)CCn4ccnn4)C3)c(F)c3[nH]c(C(=O)N4CCN(c5ncc(F)cc5OC)CC4)cc23)cc1 [Example I-1147] |  | < 0.1 |
| COc1ccccc1-c1cc(C2=CCCN(C(=O)CCn3ccnn3)C2)c(F)c2[nH]c(C(=O)N3CCNC(=O)[C@@H]3C)cc12 [Example I-996] |  | < 0.1 |
| CC(=O)N1Cc2ccccc2CC1C(=O)N1CCC=C(c2ccc3oc(C(=O)N(C)C)cc3c2)C1 (centres unmarked) [Example I-170] |  | 10 to 100 |
| CN(C)C(=O)c1cc2cc(C3=CCCN(C(=O)CCn4ccnn4)C3)cc(CN3CCCCC3)c2o1 [Example I-1178] |  | 0.1 to 1 |
| CN(C)C(=O)c1cc2ccc(C3=CCCN(C(=O)Nc4cccc(C(N)=O)c4)C3)c(F)c2[nH]1 [Example I-1329] | 1 to 10 |  |
| CNc1cccnc1N1CCN(C(=O)c2cc3c(-c4ccccc4OC)cc(C4=CCCN(C(=O)CCn5ccnn5)C4)c(F)c3[nH]2)CC1 [Example I-439] |  | < 0.1 |
| CN(C)C(=O)c1nc2cc(C3=CCCN(C(=O)CCn4ccnn4)C3)ccc2s1 [Example I-1315] | 10 to 100 |  |

| SMILES | IC50 (30 minutes room temperature) [µM] | IC50 (30 minutes at room temperature) [µM] |
| --- | --- | --- |
| Cc1nn(C)c(=O)n1-c1ccc2c(c1)cc(C1=CCCN(C(=O)CCn3ccnn3)C1)n2CC1CC1 [Example I-1333] | 1 to 10 |  |
| COc1ccccc1-c1cc(C2=CCCN(C(=O)CCn3ccnn3)C2)c(F)c2[nH]c(C(=O)N3CCCC3)cc12 [Example I-842] |  | < 0.1 |
| CN(C)C(=O)c1cc2ccc(C3=CCCN(C(=O)c4n[nH]cc4I)C3)cc2[nH]1 [Example I-33] |  | 10 to 100 |
| COc1cc(F)cnc1N1CCN(C(=O)c2cc3c(-c4cccc(C(C)(C)C#N)c4)cc(C4=CCCN(C(=O)CCn5ccnn5)C4)c(F)c3[nH]2)CC1 [Example I-682] |  | < 0.1 |
| COc1ccccc1-c1cc(C2=CCCN(C(C)=O)C2)cc2[nH]c(C(=O)N(C)C)cc12 [Example I-1091] |  | 0.1 to 1 |
| COc1ccccc1-c1cc(C2=CCCN(C(=O)CCn3ccnn3)C2)c(F)c2[nH]c(C(=O)N(C)Cc3csc(C(C)C)n3)cc12 [Example I-1423] | < 0.1 |  |
| COC(=O)c1ccc(OCC(=O)N2CCC=C(c3ccc4cc(C(=O)N(C)C)[nH]c4c3)C2)cc1 [Example I-142] |  | 1 to 10 |
| CC(=O)N1CCC=C(c2cc(-c3ccc4cncnc4c3)c3cc(C(=O)N(C)C)[nH]c3c2F)C1 [Example I-887] |  | 0.1 to 1 |
| CN(C)C(=O)c1cc2c(C3CCCCC3)cc([C@H]3CCCN(C(=O)CCn4cccn4)C3)c(F)c2[nH]1 [Example I-840] |  | < 0.1 |
| CN(C)C(=O)c1cc2cc(C3=CCCN(C(=O)CCc4cccs4)C3)ccc2o1 [Example I-299] |  | 1 to 10 |
| COCOc1ccc(F)cc1-c1cc(C2=CCCN(C(=O)CCn3ccnn3)C2)c(F)c2[nH]c(C(=O)N3CCN(c4ncc(F)cc4OC)CC3)cc12 [Example I-660] |  | < 0.1 |
| O=C(CCn1ccnn1)N1CCCC(n2ccc3cc(-c4cocn4)ccc32)C1 (centres unmarked) [Example I-1306] | 10 to 100 |  |
| COc1cc(F)cnc1N1CCN(C(=O)c2cc3c(-c4cncc(-c5ccccc5)c4)cc(C4=CCCN(C(=O)CCn5ccnn5)C4)c(F)c3[nH]2)CC1 [Example I-647] |  | < 0.1 |
| CN(C)C(=O)c1nc2cc(C3=CCCN(C(=O)CCc4ccccn4)C3)ccc2[nH]1 [Example I-1317] | 10 to 100 |  |
| CN(C)C(=O)c1cc2cc(C3=CCCN(C(=O)Cc4n[nH]c5ccccc45)C3)ccc2o1 [Example I-302] |  | 10 to 100 |
| COc1ccncc1-c1cc(C2=CCCN(C(=O)CCn3ccnn3)C2)c(F)c2[nH]c(C(=O)N3CCN(c4cccnc4C#N)CC3)cc12 [Example I-493] |  | > 100 |
| COc1ccccc1-c1cc(C2=CCCN(C(=O)CCn3ccnn3)C2)c(F)c2[nH]c(C(=O)N3CCN(C(=O)c4ccccc4)CC3)cc12 [Example I-1551] | < 0.1 |  |
| CCOC(=O)N(CC(=O)N1CCC=C(c2ccc3cc(C(=O)N(C)C)[nH]c3c2)C1)Cc1ccco1 [Example I-81] |  | 10 to 100 |
| COc1ccccc1-c1cc(C2=CCCN(C(=O)CCn3ccnn3)C2)c(F)c2[nH]c(C(=O)N3CCN(c4cc5cccnc5cc4F)CC3)cc12 [Example I-924] |  | < 0.1 |
